Results reported in PubChem BioAssay (EPA / NIEHS).
The source holds more than one record for some entries. This is not the full list of results. An entry can have further records. Results that share an entry are repeated measurements across runs, samples, wells, individuals or studies. Inconclusive results are not listed. The calls were made as follows, unless noted: active = hit-call score of the fitted dose curve at least 0.9, where 1 is the maximum; inconclusive = response in the unintended direction; inactive = score below 0.9.

Experiments:
[1] = ATG_CMV_CIS: Attagene CIS-FACTORIAL HepG2 Assay for human CMV (Internal Marker) (AID 2282928; active = hit-call score of the fitted dose curve at least 0.9, where 1 is the maximum; inactive = score below 0.9;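 also: endpoint acts as a background internal control marker rather than a target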); conditions: HepG2 CMV promoter reporter, transcription factor profiling; actives raise or lower the signal
Procedure, shortened: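 CMV internal-marker background readout in transiently transfected HepG2 cells bearing cis-regulated reporter units. Reporter mRNA is measured 24 h after dosing by RT-PCR and capillary electrophoresis, with bidirectional fitting against DMSO.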

[2] = biological target: Estrogen receptor (Homo sapiens) (UniProt P03372); assay: ATG_ERa_TRANS: Attagene TRANS-FACTORIAL HepG2 Assay for human Estrogen Receptor alpha (ERa) (AID 2282970); conditions: HepG2 Attagene TRANS ERa GAL4 reporter, mRNA
Procedure, shortened: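 Multiplexed cell-based reporter format in HepG2: chimeric ERa-Gal4 protein drives GAL4-UAS reporter transcription. Fluorescent reporter mRNA quantified by capillary electrophoresis 24 hours after dosing; endpoint fitted as signal gain against DMSO.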

[3] = biological target: Glucocorticoid receptor (Homo sapiens) (UniProt P04150); assay: NVS_NR_hGR: NovaScreen (NVS) Nuclear Receptor Binding Assay for human Glucocorticoid Receptor (GR) (AID 2283363);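 also: activity is loss of specific radioligand binding signal relative to DMSO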
Procedure, shortened: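 Cell-free radioligand binding with extracted receptor protein, read by filter-based scintillation counting 16 hours after dosing. Loss of specific signal versus DMSO baseline was scored. Primary screen ran in duplicate at 25 uM; actives were followed up in concentration series.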

Chain of UniProt P04150 (P04150 whole entry, looked up): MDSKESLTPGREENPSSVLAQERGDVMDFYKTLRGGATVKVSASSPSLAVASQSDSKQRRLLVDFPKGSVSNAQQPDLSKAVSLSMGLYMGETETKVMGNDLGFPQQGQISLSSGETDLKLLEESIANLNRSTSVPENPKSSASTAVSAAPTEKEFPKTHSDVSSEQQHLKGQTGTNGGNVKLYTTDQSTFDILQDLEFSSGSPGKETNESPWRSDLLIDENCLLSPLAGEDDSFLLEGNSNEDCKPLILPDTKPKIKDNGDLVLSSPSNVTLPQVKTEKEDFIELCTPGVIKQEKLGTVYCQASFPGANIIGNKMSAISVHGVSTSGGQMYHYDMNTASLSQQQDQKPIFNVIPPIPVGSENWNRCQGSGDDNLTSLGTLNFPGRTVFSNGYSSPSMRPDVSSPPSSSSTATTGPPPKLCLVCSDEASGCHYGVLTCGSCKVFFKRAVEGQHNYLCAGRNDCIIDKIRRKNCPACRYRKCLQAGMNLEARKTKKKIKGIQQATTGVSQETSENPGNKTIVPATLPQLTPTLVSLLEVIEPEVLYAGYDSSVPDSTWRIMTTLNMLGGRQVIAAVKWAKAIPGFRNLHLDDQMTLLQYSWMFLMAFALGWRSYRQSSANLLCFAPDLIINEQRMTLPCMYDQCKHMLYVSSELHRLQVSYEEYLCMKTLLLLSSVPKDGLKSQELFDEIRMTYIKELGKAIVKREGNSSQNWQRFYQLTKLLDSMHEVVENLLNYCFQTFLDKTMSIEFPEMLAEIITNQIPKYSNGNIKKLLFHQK
Chain of UniProt P03372 (P03372 whole entry, looked up, the tested form may be a part): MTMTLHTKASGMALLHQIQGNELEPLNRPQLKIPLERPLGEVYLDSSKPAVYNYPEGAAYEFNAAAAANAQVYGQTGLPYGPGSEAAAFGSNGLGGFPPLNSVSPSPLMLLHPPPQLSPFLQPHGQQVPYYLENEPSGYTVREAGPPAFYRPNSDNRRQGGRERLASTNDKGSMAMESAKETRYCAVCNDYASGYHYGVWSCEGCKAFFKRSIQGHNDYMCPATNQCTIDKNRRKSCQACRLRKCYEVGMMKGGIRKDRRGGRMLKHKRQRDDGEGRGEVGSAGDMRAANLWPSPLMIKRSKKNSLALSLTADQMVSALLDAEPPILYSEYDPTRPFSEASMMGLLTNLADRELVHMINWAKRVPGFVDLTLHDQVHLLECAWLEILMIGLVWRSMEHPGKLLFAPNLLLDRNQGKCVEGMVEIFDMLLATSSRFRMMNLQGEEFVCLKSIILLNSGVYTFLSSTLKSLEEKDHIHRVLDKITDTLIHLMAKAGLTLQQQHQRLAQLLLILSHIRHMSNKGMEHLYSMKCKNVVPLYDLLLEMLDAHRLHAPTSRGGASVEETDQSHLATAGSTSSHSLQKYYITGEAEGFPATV

Row | Structure (SMILES) | AC50 [1] | AC50 [2] | AC50 [3]
1 | OC1CCC(C2CCCCC2)CC1 (stereo not drawn) | active: 124, 100, 35.2, 56.9 µM [separate samples] | active: 17.1, 21.8, 8.24, 27.5 µM [separate samples] | –
2 | CCC(=C(c1ccc(O)cc1)c1ccc(OCCN(C)C)cc1)c1ccccc1 | – | – | active: 599, 181, 216, 411 nM [separate samples]
